PubChem BioAssay AID651820 (National Center for Advancing Translational Sciences (NCATS), 2012)
About 12,000 (3.5%) of roughly 340,000 compounds were called active. The inconclusive results got no clear call from the source; some entries with a clear call stand among them for comparison. Calls come from the whole dose curve; as a rule, active = well fitted inhibition curve with a large enough effect; inconclusive = small, poorly fitted or top-dose-only effect, or another doubt; inactive = no such curve, though single readings can be large or run the other way. Potencies of inconclusive entries are left out as doubtful fits.
% is set by controls: 0 for no effect and ±100 for the full control effect; potency is the fitted concentration of half-maximal effect; tags give direction and shape of the fitted curve.

Test: qHTS Assay for Inhibitors of Hepatitis C Virus (HCV)
Conditions: Huh7.5.1 HCVcc-Cre (HCVcc is cell-culture hepatitis C virus) infection, luciferase reporter, 44 h; activity change, negative = inhibition: at 41.8 µM (top of the series) unless noted
In short: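 Seed cells (1,000/well) for 4 h; treat with compound and infect with HCVcc-Cre, moi about 0.5. Incubate 44 h, then detect luciferase activity.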
In the case of `Cc1ccc(N2CCN(C(=O)N3CCOCC3)CC2)c(C)c1`, the “activity change, negative = inhibition” value is reported as inactive: 12.5%. With `CC(C)Cc1nnc(NC(=O)c2ccc3c(c2)OCCO3)s1` the “activity change, negative = inhibition” value was inactive: -9.56%. With `COc1cccc(CNCCc2ccccc2)c1OC` the “activity change, negative = inhibition” value was inactive: -3.22%. With `COc1ccc(-c2[nH]c(-c3ccc(Cl)cc3)nc2SCC(=O)Nc2nccs2)cc1` the Potency was inconclusive [inhibitor, single point]. For `CCN(CC(=O)Nc1cccc(OC)c1)CC(=O)Nc1ccc(C)cc1Cl`, the Potency was inconclusive [inhibitor, single point]. With `Fc1ccccc1COc1ccc(C(=S)N2CCCC2)cc1` the Potency was inconclusive [inhibitor, single point]. In the case of `Cc1ccccc1NC(=O)c1cc(C(=O)c2cc(Cl)ccc2O)cn(-c2ccccc2C)c1=O`, the Potency is reported as active: 12.6 µM. For `Cc1nc(-c2ccc(S(=O)(=O)Oc3ccccc3Cl)s2)cs1`, the Potency was inconclusive [inhibitor, single point]. In the case of `COc1cc(SC)ccc1C(=O)N1CCN(Cc2ccc3c(c2)OCO3)CC1`, the Potency is reported as inconclusive [inhibitor, single point]. For `CCCn1nc(NC(=O)COC)c2cc3cccc(C)c3nc21`, the Potency was active: 11.2 µM. For `CC1=NNC(=O)/C1=C\c1cn(-c2ccccc2)nc1-c1ccc(Cl)cc1`, the Potency was inconclusive [inhibitor, single point]. In the case of `Cc1ccc(/C=N/NC(=O)CN(Cc2ccccc2)S(=O)(=O)c2ccc3c(c2)OCCO3)cc1`, the Potency is reported as inconclusive [inhibitor, partial curve]. With `Cc1cccn2c(=O)c3cc(C(=O)NCc4ccc(F)cc4)c(=N)n(CCCN4CCOCC4)c3nc12` the Potency was inconclusive [inhibitor, partial curve]. For `CCn1c(SCC(=O)N/N=C/c2ccncc2)nc2ccccc21`, the Potency was inconclusive [inhibitor, single point]. With `CCc1ccccc1Nc1cc(C(=O)NCc2ccccn2)c2ccccc2n1` the Potency was inconclusive [inhibitor, partial curve, poor fit]. In the case of `CCN1CCN(CC(=O)Nc2c(OC)cccc2OC)CC1`, the “activity change, negative = inhibition” value is reported as inactive: 9.59%. In the case of `N=c1ccn(Cc2ccccc2Cl)cc1`, the Potency is reported as active: 2.51 µM. In the case of `Cc1c(Nc2ncnc3nc[nH]c23)c(=O)n(-c2ccccc2)n1C`, the “activity change, negative = inhibition” value is reported as inactive: 14.8%. In the case of `O=C(O)C1CN(c2ncccc2[N+](=O)[O-])C1`, the Potency is reported as inconclusive [inhibitor, single point]. With `Cn1c(SCc2ccccc2)nnc1C1CCCNC1` (configuration not stated) the Potency was inconclusive [inhibitor, single point]. In the case of `Cc1cc(NC(=O)c2ccc3c(c2)OCCO3)ccc1NC(=O)c1ccco1`, the Potency is reported as inconclusive [inhibitor, partial curve]. In the case of `Cc1ccccc1CS(=O)(=O)c1ccc(C(=O)N2CCOCC2)cc1[N+](=O)[O-]`, the Potency is reported as inconclusive [inhibitor, single point]. For `O=C(Nc1nc(-c2ccc3c(c2)OCO3)cs1)c1ccncc1`, the Potency was active: 12.6 µM. With `COC(=O)c1sc2nc(-c3ccccc3)nc(N3CCN(C)CC3)c2c1C` the “activity change, negative = inhibition” value was inactive: -29.2%. For `O=C(NCc1cccc(Br)c1)c1cc(-c2ccccc2)nn1CC1CC(c2cccnc2)=NO1` (configuration not stated), the Potency was inconclusive [inhibitor, single point]. For `CSc1ccc(NC(=O)Nc2cccn(Cc3ccccc3F)c2=O)cc1`, the Potency was active: 3.55 µM. With `CCCn1nnc(NC(=O)c2ccc3ccccc3c2)n1` the Potency was inconclusive [inhibitor, partial curve]. With `Cc1cc(S(=O)(=O)Nc2ccc3ccccc3c2)c(C)s1` the Potency was inconclusive [inhibitor, partial curve]. With `COc1ccc(-c2csc(-c3cccnc3)n2)cc1C` the Potency was inconclusive [inhibitor, partial curve, poor fit]. For `CC[C@@](C)(NS(=O)(=O)OCC(Cl)(Cl)Cl)c1ccccc1`, the “activity change, negative = inhibition” value was inactive: 7.3%. For `N#C/C(=C/c1ccc(Sc2nc3ccccc3[nH]2)o1)c1ccccc1F`, the Potency was active: 11.2 µM. For `Cn1c(NN=O)nc2ccccc21`, the Potency was inconclusive [inhibitor, single point]. With `c1ccc(-c2cc3ccccc3[nH]2)cc1` the Potency was inconclusive [inhibitor, partial curve]. With `CCN(CC(=O)NCc1ccc(F)cc1)C(=O)c1cccc(S(=O)(=O)N(C)c2ccc(OC)cc2)c1` the Potency was inconclusive [inhibitor, single point]. In the case of `COc1ccccc1CCN1CCCC(CN(C)CC(C)(C)CO)C1` (configuration not stated), the “activity change, negative = inhibition” value is reported as inactive: 12.8%. In the case of `CC(C)c1ccc(/C=N/Nc2cc(N3CCOCC3)nc(N3CCOCC3)n2)cc1`, the Potency is reported as inconclusive [inhibitor, full curve]. With `COC(=O)C1=COC(C)C2CN3CCC4(C(=O)Nc5ccccc54)C3CC12` (configuration not stated) the “activity change, negative = inhibition” value was inactive: 1.77%. In the case of `O=C(O)c1ccc(/C=C2\SC(=S)N(Nc3ccccc3)C2=O)cc1`, the “activity change, negative = inhibition” value is reported as inactive: -20.4%. With `CCOC(=O)c1ccccc1NC(=O)c1cccc2c1C(=O)N(C1CCN(C(=O)OCC)CC1)C2` the Potency was inconclusive [inhibitor, single point]. With `COc1ccc(-c2csc(NC(=S)NC(=O)c3ccc(S(=O)(=O)N(C)C)cc3)n2)cc1OC` the Potency was inconclusive [inhibitor, partial curve]. With `CCOc1ccc(CCNC(=O)C2CCN(S(=O)(=O)CC)CC2)cc1OCC` the “activity change, negative = inhibition” value was inactive: -6.77%. For `COc1ccc(-c2sc3ccc(OC)cc3c2C#CCCO)cc1`, the Potency was inconclusive [inhibitor, full curve]. In the case of `O=C(O)CCCCCNc1ncnc2ccc(Br)cc12`, the Potency is reported as inconclusive [inhibitor, single point]. In the case of `O=C(Nc1cccn2ncnc12)c1ccc(Cl)cc1`, the “activity change, negative = inhibition” value is reported as inactive: 1.91%. For `Cc1ccc(NC(=O)c2ccc(Cn3cc(Br)cn3)o2)cc1`, the Potency was inconclusive [inhibitor, partial curve]. For `CCOC(=O)c1c(-c2cccs2)csc1NC(=O)c1ccncc1`, the Potency was inconclusive [inhibitor, partial curve]. With `Cc1nc2ccc(NC(=O)N3CCC(c4ccccc4)C3)cc2nc1C` (configuration not stated) the Potency was inconclusive [inhibitor, partial curve].
